{"source": "PubChem BioAssay AID720542", "about": "(National Center for Advancing Translational Sciences (NCATS), 2013)", "note": "Among all 360,000 compounds or so, about 740 (0.21%) were called active. The inconclusive results got no clear call from the source; some entries with a clear call stand among them for comparison. Calls follow the shape of the dose curve; as a rule, active = well fitted inhibition curve with a large enough effect; inconclusive = small, poorly fitted or top-dose-only effect; inactive = no such curve, though single readings can be large or run the other way. No potency is given beside an inconclusive call; the fits are too rough. Potency is read from the fitted curve at half-maximal effect; tags tell the direction and shape of the fitted curve."}
{"system": "Plasmodium falciparum AMA1 (3D7) - RON2 peptide interaction", "experiment": "qHTS for Inhibitors of AMA1-RON; Towards Development of Antimalarial Drug Lead: Primary Screen; also: nearly all actives have a fitted effect of over 45% in size;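 as to activity change, negative = inhibition: 0% = vehicle wells and -100% = peptide control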", "conditions": "AlphaScreen AMA1-biotinylated RON2 peptide binding; activity change, negative = inhibition: at 58.2 µM (top of the series) unless noted", "method_in_brief": "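AMA1 (3D7) with his tag at 25 nM final met compounds first, then biotinylated RON2 peptide at 25 nM; detection used donor plus acceptor beads, 10 µg/mL apiece, read by AlphaScreen after 30 min at room temperature.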"}
{"smiles": "CCn1c(/C=C2\\C(=O)N(C(C)C)c3ccccc32)nc2ccccc2c1=O", "activity change, negative = inhibition": "inactive: -25.3%"}
{"smiles": "Clc1ccc2nc(N3CCN(c4ccccc4)CC3)sc2c1", "activity change, negative = inhibition": "inactive: 0.0903%"}
{"smiles": "CN(C)C(=O)C(CCN1CCC(O)(c2ccc(Cl)cc2)CC1)(c1ccccc1)c1ccccc1", "activity change, negative = inhibition": "inactive: 4.41%"}
{"smiles": "Cc1cc2cc(NC(=O)c3ccco3)ccc2[nH]1", "activity change, negative = inhibition": "inactive: -10.6%"}
{"smiles": "OC(CNCc1ccco1)Cn1c2ccccc2c2ccccc21", "note": "(centres undefined)", "activity change, negative = inhibition": "inactive: -7.1%"}
{"smiles": "CCc1nc(Nc2ccccc2F)c2oc3ccccc3c2n1", "Potency": "inconclusive [inhibitor, partial curve]"}
{"smiles": "Nc1ccc(OCCCc2c(N)nc(N)nc2N)cc1", "Potency": "inconclusive [inhibitor, single point]"}
{"smiles": "Cc1nc2sc(C)c(C)c2c(=O)o1", "Potency": "inconclusive [inhibitor, single point]"}
{"smiles": "COc1ccc(-n2cc(-c3ccccc3)c3c(N4CCOCC4)ncnc32)cc1", "Potency": "inconclusive [inhibitor, partial curve]"}
{"smiles": "Cc1cc(-c2csc(N)n2)c(C)n1C", "Potency": "active: 28.2 µM"}
{"smiles": "CCOC(=O)C1Nc2ccc(C(=O)O)cc2C2C=CCC12", "note": "(centres undefined)", "Potency": "inconclusive [inhibitor, single point]"}
{"smiles": "O=[N+]([O-])c1cc(/C=N/N/C(=N/c2ccccn2)c2ccccn2)ccc1O", "activity change, negative = inhibition": "inactive: 9.51%"}
{"smiles": "O=C(Nc1ccccc1[N+](=O)[O-])C1COc2ccccc2O1", "note": "(centres undefined)", "Potency": "inconclusive [inhibitor, partial curve]"}
{"smiles": "N#Cc1cc2ccccc2nc1SCC(=O)Nc1ccc(S(=O)(=O)N2CCCC2)cc1", "activity change, negative = inhibition": "inactive: -0.63%"}
{"smiles": "COC(=O)[C@@H]1C[C@@]2(O)[C@@H](O)[C@@H](O)[C@@H](O)C[C@H]2N1Cc1ccc(Cl)cc1", "activity change, negative = inhibition": "inactive: 8.98%"}
{"smiles": "Cc1ccc(C(=O)C2CCN(CC(=O)Nc3ccc(N(C)C)cc3)CC2)cc1", "Potency": "inconclusive [inhibitor, single point]"}
{"smiles": "CCOC(=O)C1CCCN(c2oc(-c3ccc(OC)cc3)nc2C#N)C1", "note": "(centres undefined)", "Potency": "inconclusive [inhibitor, partial curve]"}
{"smiles": "CCOc1ccc(-c2nc(C#N)c(N3CCN(Cc4ccccc4)CC3)o2)cc1", "Potency": "inconclusive [inhibitor, partial curve]"}
{"smiles": "CSc1ccccc1NC(=O)CSc1nncs1", "activity change, negative = inhibition": "inactive: -0.714%"}
{"smiles": "C=CCOc1cccc(C2C(C(=O)c3ccco3)=C(O)C(=O)N2Cc2ccco2)c1", "note": "(centres undefined)", "activity change, negative = inhibition": "inactive: -20.5%"}
{"smiles": "CCN(CC)c1ccc(/C=N/Nc2nc3ccccc3[nH]2)c(O)c1", "Potency": "inconclusive [inhibitor, partial curve]"}
{"smiles": "CNC(=S)N(CCc1ccc(S(N)(=O)=O)cc1)C1CC(=O)N(c2ccccc2F)C1=O", "note": "(centres undefined)", "Potency": "inconclusive [inhibitor, partial curve]"}
{"smiles": "CC1CCN(C(=O)CCc2nnc(-c3ccccc3)o2)CC1", "Potency": "inconclusive [inhibitor, partial curve]"}
{"smiles": "c1ccc(-c2nnc(SCC3CCCO3)nc2-c2ccccc2)cc1", "note": "(centres undefined)", "Potency": "inconclusive [inhibitor, partial curve]"}
{"smiles": "CCCN1CCC(=O)N(CCSc2ccccc2)CC1", "activity change, negative = inhibition": "inactive: 5.24%"}
{"smiles": "COc1ccc(N2CCN(C(c3cccc(OC)c3OC)c3nnnn3C3CCCC3)CC2)cc1", "note": "(centres undefined)", "Potency": "inconclusive [inhibitor, single point]"}
{"smiles": "CN(C)c1ccc(C=C(C#N)C#N)cc1", "activity change, negative = inhibition": "inactive: -10.4% [at 2.32 µM]"}
{"smiles": "COc1cc(/C=N/N2CCN(c3ccccc3)CC2)ccc1OC(C)=O", "Potency": "inconclusive [inhibitor, partial curve, poor fit]"}
{"smiles": "CCN(C(=O)CSc1nnc(-c2ccc(Cl)cc2)n1C)C1CCS(=O)(=O)C1", "note": "(centres undefined)", "Potency": "inconclusive [inhibitor, partial curve]"}
{"smiles": "CCOc1ccc(S(=O)(=O)Nc2nc3ccccc3nc2Nc2ccc(N3CCOCC3)cc2)cc1", "Potency": "inconclusive [inhibitor, partial curve]"}
{"smiles": "COc1ccccc1NC(=O)C(C)N(C)Cc1ccc(Cl)s1", "note": "(centres undefined)", "Potency": "inconclusive [inhibitor, full curve, poor fit]"}
{"smiles": "COc1ccc(C(=O)Nc2cc(C)cc(C)c2)cc1S(=O)(=O)N1CCOCC1", "activity change, negative = inhibition": "inactive: 10.9%"}
{"smiles": "Cc1cc(-c2n[nH]c(=S)n2/N=C/c2cccc(O)c2)n[nH]1", "activity change, negative = inhibition": "inactive: 95.1%"}
{"smiles": "CSc1ccc(CN2CCN(C(=O)COc3cccc(C)c3)CC2)cc1", "Potency": "inconclusive [inhibitor, single point]"}
{"smiles": "c1ccc(N2[C@@H]3c4ccccc4C[C@H]2c2ccccc23)cc1", "Potency": "inconclusive [inhibitor, partial curve]"}
{"smiles": "NC(=O)CSc1nc2scc(-c3ccco3)c2c(=O)n1-c1ccccc1", "Potency": "inconclusive [inhibitor, single point]"}
{"smiles": "CCN1CCN(Cc2ccc(NC(=O)c3cc(NC(=O)c4cncc(-c5cccs5)c4)cc(OC)c3)cc2C(F)(F)F)CC1", "Potency": "inconclusive [inhibitor, partial curve]"}
{"smiles": "O=C1C=CC(=O)N1N(c1ccccc1)c1ccccc1", "Potency": "inconclusive [inhibitor, single point]"}
{"smiles": "COc1ccc(NCC(=O)Nc2c(C)cccc2C)cc1S(=O)(=O)N1CCOCC1", "Potency": "inconclusive [inhibitor, partial curve]"}
{"smiles": "N#Cc1c(SCC(=O)Nc2nc3ccccc3s2)sc2c(O)cc(=O)[nH]c12", "Potency": "inconclusive [inhibitor, partial curve]"}
{"smiles": "Cc1cccc(-c2noc(CN(C(=O)c3c(-c4ccccc4Cl)noc3C)C(C)C)n2)c1", "activity change, negative = inhibition": "inactive: -0.665%"}
{"smiles": "COc1ccc(CN2CCN(C(=O)c3cccs3)CC2)cc1", "Potency": "inconclusive [inhibitor, partial curve]"}
{"smiles": "N#Cc1cc2c(=O)n3ccccc3nc2n(Cc2ccco2)c1=NC(=O)c1ccco1", "Potency": "inconclusive [inhibitor, full curve, poor fit]"}
{"smiles": "CCN1CCn2c3c(c4cc(Br)ccc42)CCCC31", "note": "(centres undefined)", "Potency": "inconclusive [inhibitor, single point]"}
{"smiles": "O=C(Nc1ccc(Nc2ccncc2)cc1)c1ccc(Nc2ccnc3ccc([N+](=O)[O-])cc23)cc1[N+](=O)[O-]", "Potency": "inconclusive [inhibitor, partial curve]"}
{"smiles": "Cc1noc(C)c1S(=O)(=O)N1Cc2ccccc2CC1C(=O)N(C)C", "note": "(centres undefined)", "activity change, negative = inhibition": "inactive: 1.96%"}
{"smiles": "Cn1cc(-c2ccc3c(c2)OCO3)c2ccccc21", "Potency": "inconclusive [inhibitor, partial curve]"}
{"smiles": "Cc1cc(=O)oc2c(N)nccc12", "Potency": "inconclusive [inhibitor, partial curve]"}
{"smiles": "CCOC(=O)c1oc2ccccc2c1CN1CCN(c2ccccc2)CC1", "Potency": "inconclusive [inhibitor, partial curve]"}
{"smiles": "O=C(CNCc1ccco1)Nc1ccc(N2CCCCCC2)cc1", "Potency": "inconclusive [inhibitor, partial curve]"}
{"smiles": "Cc1ccc2cn[nH]c2c1NC(=S)NC(=O)c1ccccc1", "activity change, negative = inhibition": "inactive: 26.3%"}
{"smiles": "Cc1ccccc1N=C/C=C1/C=C(c2ccccc2)OC(C)(C)O1", "Potency": "inconclusive [inhibitor, single point]"}
{"smiles": "Cc1cc2cc(CNC(=O)Nc3ccccc3)ccc2n1C", "Potency": "inconclusive [inhibitor, single point]"}
{"smiles": "CC(=O)Nc1ccc(S(=O)(=O)N2CCNC(=O)C2)cc1", "Potency": "inconclusive [inhibitor, single point]"}
{"smiles": "C/C(=C/c1oc2ccc(O)cc2c1[N+](=O)[O-])N(C)C", "Potency": "inconclusive [inhibitor, full curve, poor fit]"}
{"smiles": "COc1cc(C=C2C(=O)C=CC2=O)ccc1O", "Potency": "inconclusive [inhibitor, partial curve]"}
{"smiles": "S=C1CCC(c2ccc(Cl)cc2)=NN1c1ccccc1", "Potency": "inconclusive [inhibitor, single point]"}
{"smiles": "Cc1cccc(OCC(=O)Nc2nonc2NC(=O)COc2cccc(C)c2)c1", "Potency": "inconclusive [inhibitor, single point]"}
{"smiles": "Cc1[nH]c2ccc(C(=O)N3CCN(c4ccc(F)cc4)CC3)cc2c1C", "Potency": "inconclusive [inhibitor, partial curve]"}
{"smiles": "Cc1csc(NC(=O)CSc2nc(C)cs2)n1", "activity change, negative = inhibition": "inactive: 8.68%"}
{"smiles": "Cn1c(=O)n(C/C=C/c2ccccc2)c(=O)c2c1nc1n2CCCN1Cc1ccccc1", "Potency": "inconclusive [inhibitor, partial curve]"}
{"smiles": "COc1cc(C)c2c(c1C=O)Oc1c(c(C)c(O)c3c1C(O)OC3=O)OC2=O", "note": "(centres undefined)", "Potency": "inconclusive [inhibitor, single point]"}
{"smiles": "Fc1ccc(C2CCNCC2COc2ccc3c(c2)OCO3)cc1", "note": "(centres undefined)", "Potency": "inconclusive [inhibitor, partial curve]"}
{"smiles": "COc1ccc(N2CCN(C(=O)CCSCc3ccccc3F)CC2)cc1", "Potency": "inconclusive [inhibitor, single point]"}
{"smiles": "COc1ccc(C(=O)NC2CC2)cc1OC1CCN(Cc2ccc(Cl)cc2)CC1", "Potency": "inconclusive [inhibitor, single point]"}
{"smiles": "O=[N+]([O-])c1ccc(CN2CCN(c3ccc4ccccc4n3)CC2)cc1", "Potency": "inconclusive [inhibitor, partial curve]"}
{"smiles": "Nn1c(SCC(=O)NCc2ccc3c(c2)OCO3)nnc1C(F)(F)F", "activity change, negative = inhibition": "inactive: -0.511%"}
{"smiles": "O=C(Nc1ccc(N2CCCCCC2)cc1)c1ccc[nH]1", "Potency": "inconclusive [inhibitor, single point]"}
{"smiles": "O=C1CCCC2=C1C(c1ccc(O)c(O)c1)c1c(ccc3ncccc13)N2", "note": "(centres undefined)", "Potency": "inconclusive [inhibitor, full curve]"}
